Reference: patent US20230348609A1

Experiments:
[1] = molecular target: human CD40, full-length, on cells (human) (UniProt P25942); assay: cell-based or functional assay
[2] = molecular target: human CD40, full-length, on cells (human) (UniProt P25942); assay: FACS (MFI) on Raji cells, four-parameter fit
[3] = molecular target: human CD40, full-length, on cells (human) (UniProt P25942); assay: FACS (MFI) on A431 cells, four-parameter fit
[4] = molecular target: W352-cynoPro1.ECD.His (cynomolgus monkey) (UniProt G7PG38); assay: SPR, Biacore 8K; antibody captured by goat anti-human Fc; analyte W352-cynoPro1.ECD.His
[5] = molecular target: human CD40, full-length, on cells (human) (UniProt P25942); assay: FACS (MFI) on W352-CHOK1.hPro1.A7 cells expressing human CD40, four-parameter fit
[6] = molecular target: W352-hPro1.ECD.His (human) (UniProt P25942); assay: SPR, ProteOn XPR36; antibody captured by goat anti-human Fc; analyte W352-hPro1.ECD.His; 1:1 model
[7] = molecular target: cynomolgus monkey CD40 on transiently transfected 293F cells (cynomolgus monkey) (UniProt G7PG38); assay: FACS (MFI) on 293F cells transiently transfected with cynomolgus monkey CD40, four-parameter fit

EC20, B cell proliferation [1]: 5.5 pM
EC20, CD54 expression, DC activation assay [1]: 260 pM
EC20, CD80 expression, DC activation assay [1]: 490 pM
EC20, CD83 expression, DC activation assay [1]: 140 pM
EC20, IL-12p40 release, DC activation assay [1]: 690 pM
EC20, NFκB reporter assay, W352-Ramos.NFκBRE.luc [1]: 87 pM
EC20, NFκB reporter assay, W352-U937.hPro1.NFκBRE.luc [1]: 210 pM
EC50, B cell proliferation [1]: 160 pM
EC50, CD80 expression, DC activation assay [1]: 880 pM
EC50, CD83 expression, DC activation assay [1]: 240 pM
EC50, CD86 expression, DC activation assay [1]: 880 pM
EC50, IL-12p40 release, DC activation assay [1]: 1200 pM
EC50, NFκB reporter assay, W352-Ramos.NFκBRE.luc [1]: 160 pM
EC50, NFκB reporter assay, W352-U937.hPro1.NFκBRE.luc [1]: 810 pM
EC90, B cell proliferation [1]: 890 pM
EC90, CD54 expression, DC activation assay [1]: 2400 pM
EC90, CD80 expression, DC activation assay [1]: 2200 pM
EC90, CD83 expression, DC activation assay [1]: 570 pM
EC90, CD86 expression, DC activation assay [1]: 2300 pM
EC90, IL-12p40 release, DC activation assay [1]: 2600 pM
EC90, NFκB reporter assay, W352-Ramos.NFκBRE.luc [1]: 450 pM
EC90, NFκB reporter assay, W352-U937.hPro1.NFκBRE.luc [1]: 7200 pM
EC50 [2]: 1700 pM
EC50 [3]: 1400 pM
Kd [4]: 6940 pM
koff [4]: 0.00107 s⁻¹
kon [4]: 155000 M⁻¹ s⁻¹
EC50 [5]: 4300 pM
Kd [6]: 4830 pM
koff [6]: 0.00111 s⁻¹
kon [6]: 230000 M⁻¹ s⁻¹
EC50 [7]: 5200 pM
B1: WBP352-BMK4.hIgG2K (antibody, INN chains, looked up, V domains shown)
VH: [letters of about 100 residues omitted]DQPLGYCTNGVCSYFDYWGQGTLVTVSS
VL: DIQMTQSPSSVSASVGDRVTITCRASQGIYSWLAWYQQKPGKAPNLLIYTASTLQSGVPSRFSGSGSGTDFTLTISSLQPEDFATYYCQQANIFPLTFGGGTKVEIK
modifications: IgG2 kappa
